This passage reports TGI and GI50 results from PubChem BioAssay (NCI).

The subject of the assay is NCI-H322M lung. The experiment in a line: NCI anticancer screen, dose series, 48 h.

Where “and” joins values, the source holds several entries; their conditions need not be identical. Identical values can stand only once.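 Step 1: Grow cells in 96-well plates. Step 2: Expose to compound for 48 hours at 5 concentrations. Step 3: Interpolate endpoints linearly; if unreached, use highest concentration. Abbreviation: GI50, concentration required for 50% inhibition of growth. TGI is the concentration that stops growth completely.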 Some results are limits rather than exact numbers.

Regarding `CCOc1ccc(NCC(=O)N2CC(=O)Nc3ccccc32)cc1`, the TGI was over 100 µM.

Molecule `N#CCCc1nc2ccc(Br)cc2c(=O)n1-c1ccc(O)c([N+](=O)[O-])c1` registered a TGI of 31.5 µM.

With `Oc1ccccc1C=Nc1ccc(Oc2ccc(Cl)cc2)c(Cl)c1`, the TGI stood at 80.4 µM.

`CCOP(=O)(CS(C)=O)O[C@@H]1C[C@H](C)CC[C@H]1C(C)C` (stereo not given in full) displayed a TGI of 20.7 µM.

For the molecule `c1ccc(-c2nc(Nc3ccc(-c4nc5ccccc5[nH]4)cc3)nc(N3CCOCC3)n2)cc1`, the GI50 is 1.65 µM and the TGI stood at 3.31 µM.

As to `Cc1ccc(S(=O)(=O)N/N=C2\C(=O)C3CC2C(Cl)C3Cl)cc1` (stereo not given), the TGI was over 100 µM.

Consider `COc1ccccc1NC(=O)C(C#N)=C(SC)SC`, for which the TGI is over 100 µM.

On to `Clc1ccc(C2=Nc3ccccc3SC(c3ccc(Cl)c(Cl)c3)C2)c(Cl)c1` (stereo not given), for which the TGI stood at 38.8 µM.

For `CCN(CC)c1ccc(/C=N/NC(=O)c2ccc(Nc3ccnc(C(F)(F)F)c3)cc2)c(O)c1`, the GI50 is 0.31 µM and the TGI was over 39.3 µM.

In turn, `N#Cc1cnn2c1n[n+]([O-])c1ccc(Cl)cc12` came in with a TGI of 10.2 µM.

Molecule `Cc1c(CCN=P(c2ccccc2)(c2ccccc2)c2ccccc2)c(=O)n2c([nH]c3ccccc32)c1C#N` registered a TGI of over 10 µM.

In turn, `COc1ccc(/C=C/C(=O)NCC(NC(=O)/C=C/c2ccc(OC)c(OC)c2)C(=O)O)cc1OC` (stereo not given) registered a TGI of over 100 µM.

`O=C1C(NCCc2cc(Br)c(O)c(Br)c2)=CC(=O)c2ncccc21` came in with a TGI of 6.69 µM.

The molecule `CC(SC1=CC(=O)c2c(Cl)ccc(O)c2C1=O)C(=O)O` (stereo not given) yielded a TGI of 31.3 µM.

Molecule `CCCCCCC(N)(CCCCCC)C(=O)Nn1c(C)ccc1C` displayed a TGI of over 100 µM.

For `CN(C)c1ccc(C2CC(=O)CC(c3ccc(N(C)C)cc3)C23C(=O)NC(=O)NC3=O)cc1` (stereo not given), the TGI was over 25 µM.

`CCOC(=O)C1CCC/C1=N\N=C(N)N` (stereo not given) (tested in a mixture with another compound): the TGI is over 100 µM.

`C1CSCC2(COC2)CS1` came in with a TGI of over 100 µM.

For the molecule `COC(=O)Nc1ccc2ccc3c(NC(=O)OC)ccc4ccc1c2c43` (tested in a mixture with another compound), the GI50 is 11.8 µM and the TGI was over 50 µM.

Molecule `COc1ccc(CSCc2cc(OC)c(OC)c(OC)c2)cc1` came in with a TGI of over 100 µM.

Regarding `Nc1ncc2c(n1)-c1ccccc1OC2NC1CC1` (stereo not given), the TGI was over 100 µM.

With `CC(=O)OCC(OC(C)=O)C(OC(C)=O)C(/C=N/N(C(C)=O)S(=O)(=O)c1ccc(/C=C2\NC(=O)NC2=O)cc1)OC(C)=O` (stereo not given), the TGI was over 100 µM.

In the case of `CC(=NNC(=S)Nc1ccccc1C)c1cccc(C(C)=NNC(=S)Nc2ccccc2C)n1`, the TGI is 56.9 µM.

In the case of `CCOC(=O)/C(C#N)=C(O)/C(=C/c1ccccc1Cl)NC(=O)c1ccccc1`, the TGI was over 100 µM.

`CCNC(=O)C(O)C1(O)CCC2[C@@H]3CCC4=CC(=O)C=C[C@]4(C)C3[C@@H](O)C[C@@]21C` (stereo not given in full) displayed a TGI of over 100 µM.

As to `CN1CC=C(OP(=O)(NCc2ccccc2)N(CCCl)CCCl)CC1` (stereo not given), the TGI is over 100 µM.

In turn, `O=C1C(NCCO)=C(N2CC2)C(=O)C(NCCO)=C1N1CC1` had a TGI of over 100 µM.

Molecule `C[C@]12CC[C@H]3[C@@H](CCC4=CC(=O)CC[C@@H]43)[C@@H]1CC[C@@H]2OC1(O)C(=O)c2ccccc2C1=O` gave a TGI of over 100 µM.

As for `CCCCCCCCCCCCCCCC(=O)NC1CCc2cc(O)c(O)c(O)c2-c2ccc(SC)c(=O)cc21` (stereo not given), the TGI was determined as 28.3 µM.

The molecule `Nc1ccc(N=Nc2ccc(/C=C/c3ccc(N=Nc4ccc(N)c5ccc(S(=O)(=O)O)cc45)cc3S(=O)(=O)O)c(S(=O)(=O)O)c2)c2cc(S(=O)(=O)O)ccc12` returned a TGI of over 100 µM.

As for `CC[C@@]1(O)C(=O)NCc2c1cc1n(c2=O)Cc2cc3cc4c(cc3nc2-1)OCO4`, the GI50 was 3.19 µM and the TGI is over 84.8 µM.

As for `CC[C@@]1(O)C(=O)OCc2c1c(Cl)c1n(c2=O)Cc2cc3ccccc3nc2-1`, the TGI was over 67.8 µM.

`C/C(C=O)=N\Nc1cc(C)c2ccccc2n1` yielded a TGI of 41.5 µM.

As to `COc1ccc(-c2ccc(/C=N/n3cn[nH]c3=S)o2)c([N+](=O)[O-])c1`, the GI50 was 43 µM and the TGI is over 100 µM.

As to `COC(=O)n1c(=O)nc2c3c(ncn21)Oc1c(c(-c2ccccc2)nn1-c1ccccc1)C3c1ccc(Cl)cc1` (stereo not given), the TGI was determined as 2.95 µM.

For the molecule `CCCCCCn1c(-c2ccc(C(=O)O/N=C(\N)c3ccc(OC)cc3)cc2)nc(-c2ccccc2)c1-c1ccccc1`, the GI50 was 3.93 µM and the TGI is over 100 µM.

Turning to `O=C(Oc1ccccc1)c1cc(O)c(O)c(O)c1`, the GI50 is 14.9 µM and the TGI was over 100 µM.

As to `Cc1ccc(-c2c(C#N)c(-c3ccc(N(C)C)cc3)c(C#N)c(=O)n2NS(=O)(=O)c2ccccc2)cc1`, the TGI is over 100 µM.

In the case of `CC1CCC2(OC1)OC1CC3C4CC=C5CC(OC6OC(CO)C(OC7OC(C)C(OC8OC(C)C(O)C(O)C8O)C(O)C7O)C(O)C6OC6OC(C)C(O)C(O)C6O)CCC5(C)C4CCC3(C)C1C2C` (stereo not given), the TGI amounted to 1.82 µM.

As to `CCCCCC(=O)N1c2ccccc2NC2=C(C(=O)CC(c3ccc(OC)c(OC)c3)C2)C1c1ccc(C(F)(F)F)cc1` (stereo not given), the GI50 was over 100 µM and the TGI is over 100 µM.

With `CCCCCCC(C)CC(CCCCCC)NCCOC(=O)c1ccc([N+](=O)[O-])cc1` (stereo not given), the TGI is 25.3 µM and 26.2 µM.

In turn, `N#C/C(=C\c1ccc(Cl)cc1)c1nc2ccccc2c(=O)[nH]1` yielded a TGI of over 100 µM.

In the case of `O=C(/C=C/c1ccc(O)c(O)c1)NC(CO)C(=O)O` (stereo not given), the TGI was over 100 µM.

In the case of `COc1n[n+]([O-])c(C)cc1[N+](=O)[O-]`, the GI50 is 21.3 µM and the TGI was 45.5 µM.

Molecule `CSC1=N/C(=C\c2cccs2)C(=O)N1CN1CCCCC1` showed a TGI of over 100 µM.

Consider `CC(=O)OCC(=O)[C@@]1(O)[C@H](C)C[C@H]2[C@@H]3C=C(C)C4=Cc5c(cnn5-c5ccc(F)cc5)C[C@]4(C)[C@H]3[C@@H](O)C[C@@]21C`, for which the GI50 is 4.81 µM and the TGI was found to be 16.8 µM.

For the molecule `O=C(O)Cc1cc(=O)oc2cc(O)c(Cl)cc12`, the TGI was over 100 µM.

For the molecule `COc1ccc(C2(CN(C)C)COc3cc(OC)c(OC)cc3C2=O)cc1OC` (stereo not given), the TGI was over 100 µM.

As for `Clc1cc(Cl)cc(N2N=C(c3cccc(Nc4ccncc4)c3)CC2c2ccccc2)c1` (stereo not given), the GI50 is 1.68 µM and the TGI was 3.4 µM.

As to `Nc1nc(-n2cccn2)nc(-n2cccn2)c1Br`, the GI50 was over 100 µM and the TGI was over 100 µM.

`O=C(CCN(CCO)CCO)Nc1ccc2c(c1)C(=O)c1ccc(NC(=O)CCN(CCO)CCO)cc1C2=O` had a TGI of over 100 µM.

`CCCOc1ccc(/C=C/c2cc(OC)c(OC)c(OC)c2)cc1`: the TGI is over 100 µM.

The molecule `Cc1nc2ccccc2nc1NS(=O)(=O)c1ccc(N)cc1` returned a TGI of over 100 µM.

`N#Cc1c(-c2ccccc2)c(C#N)c(=O)n(NS(=O)(=O)c2ccccc2)c1O` showed a TGI of over 100 µM.

Take `[N-]=[N+]=Nc1ncc(-c2ccc(C(F)(F)F)cc2)c(NC2CCCCCC2)n1`: the GI50 was over 10 µM and the TGI was over 10 µM.

In turn, `CC(C)=CC(=O)Cc1nc2ccccc2[nH]c1=O` had a TGI of over 100 µM.

`C/C(C=O)=C1\C(O)C[C@]1(C)C1CC(C)(C)CC1O` (stereo not given in full) came in with a TGI of over 100 µM.

On to `C=C1C(=O)O[C@H]2[C@H]1CC/C(COC(=O)NCCc1ccc(OC)cc1)=C\CC[C@@]1(C)O[C@@H]21`, for which the GI50 was 12.6 µM and the TGI worked out at 26.1 µM.

As to `O=c1cc/c(=N\Nc2ccccc2)c(=O)/c1=N/Nc1ccccc1`, the GI50 was over 50 µM and the TGI was over 50 µM.

On to `N#C/C(=C\c1cn(-c2ccccc2)c2ccccc12)C(=O)O`, for which the GI50 is 83.6 µM and the TGI is over 100 µM.

The molecule `CC(=O)NNC=N/C(C#N)=C(\N)C#N` showed a TGI of over 100 µM.

`COc1ccc(NC2=C(Sc3nc(C)cc(C)n3)C(=O)N(Cc3ccccc3)C2=O)cc1Cl`: the GI50 is over 160 µM and the TGI is over 160 µM.

Take `CN(C)c1ccc(C(C#N)N2CCCN(C(C#N)c3ccc(N(C)C)cc3)C2c2ccc(N(C)C)cc2)cc1` (stereo not given): the TGI was over 100 µM.

`CC1CCCc2c(-c3ccc(Cl)cc3)nc(N)c(C#N)c21` (stereo not given) yielded a TGI of over 100 µM.

`CN1C(c2ccccc2)CC(=Nc2ccccc2)CC1c1ccccc1` (stereo not given) yielded a TGI of 43.7 µM.

Regarding `COc1ccc(Cl)cc1N1C(=O)C(Cl)=C(Nc2cccc(O)c2)C1=O`, the GI50 is 29.3 µM and the TGI is over 100 µM.

In the case of `CN(CCO)CC(=O)CC(O)(C(F)(F)F)C(F)(F)F`, the TGI is over 100 µM.

Regarding `COc1ccc(/C=C/C(=O)c2ccc(Nc3ncnc4ccccc34)cc2)cc1OC`, the GI50 was 30.3 µM and the TGI is over 100 µM.

Turning to `CCCOc1ccc(/C=C\c2cc(OC)c(OC)c(OC)c2)cc1`, the TGI is over 100 µM.

On to `CCCCOC(=O)/C(CC(=O)C=C(C)C)=N\NS(=O)(=O)c1ccc(C)cc1`, for which the TGI is over 100 µM.

On to `COC(=O)c1c2c(c(C)[n+]([O-])c1C)C(=O)C=C(NCc1ccc(Cl)cc1)C2=O`, for which the GI50 was 0.411 µM and the TGI was determined as 1.81 µM.

`O=C(Nc1ccccc1)N1CCNC1=S` registered a TGI of over 100 µM.

For the molecule `O=C(Nc1ccccc1Cl)c1cnc2ccc(C3CCNCC3)cn12`, the GI50 is 4.67 µM and the TGI is over 100 µM.

`O=C1/C(=C/c2cccc([N+](=O)[O-])c2)COc2ccccc21` displayed a TGI of over 100 µM.

With `Cc1cccc(C(C)O)n1` (stereo not given), the TGI was over 100 µM.

Take `COc1ccc2oc(=N)c(C(N)=S)cc2c1`: the TGI worked out at 98.6 µM.

`Cc1cccc2c3c(sc12)C(c1ccc(Cl)cc1)C(C#N)=C(/N=C/c1ccc(Cl)cc1)O3` (stereo not given): the GI50 is 0.707 µM and the TGI was over 100 µM.

Regarding `C#Cc1cccc(NC(=O)Nc2ccc(NC(=O)CCl)cc2)c1`, the GI50 is over 82.5 µM and the TGI is over 82.5 µM.

Turning to `CCCOC(=O)c1cc(C(=CCC[C@H]2CC[C@@]3(C)[C@@H](CC[C@@H]4[C@@H]3CC[C@]3(C)[C@@H](C(C)CCCC(C)C)CC[C@@H]43)C2)c2cc(Cl)c(O)c(C(=O)OCCC)c2)cc(Cl)c1O` (stereo not given in full), the TGI was over 50 µM.

Molecule `O=[N+]([O-])c1ccc(Cc2nc3ccccc3s2)cc1` had a TGI of over 100 µM.

The molecule `CC1(C)CCSC(/C=C/c2ccccc2)=N1` gave a TGI of 31.5 µM.

In turn, `Cc1[nH]c2ncn(/N=C/c3ccccc3)c(=N)c2c1Cc1ccccc1` registered a TGI of over 100 µM.
